Measurements as given in PubChem BioAssay AID2100 (National Center for Advancing Translational Sciences (NCATS), 2009).
About 1,200 (0.4%) of roughly 300,000 compounds were called active. Inconclusive results, whose numbers are uncertain, are shown with a selection of clear calls. Calls come from the whole dose curve; as a rule, active = well fitted inhibition curve with a large enough effect; inconclusive = small, poorly fitted or top-dose-only effect, or another doubt; inactive = no such curve, though single readings can be large or run the other way. Where the call is inconclusive, the potency comes from a doubtful curve fit.
Potency is the fitted concentration of half-maximal effect.

Each compound was assayed against Lysosomal alpha-glucosidase (Homo sapiens) (UniProt P10253) (assay: qHTS Assay for Inhibitors and Activators of Human alpha-Glucosidase Cleavage of Glycogen). Settings: recombinant GAA, glycogen substrate, Amplex Red glucose oxidase fluorescence; series mostly up to 76.4 µM.
How it was run: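 Recombinant human alpha-glucosidase (4 nM final) hydrolysed bovine liver glycogen (30 ug) for 40 min at 37 C in pH 5.0 citrate/phosphate with 0.01% Tween-20. Released glucose detected by glucose oxidase/Amplex Red, Ex 573/Em 610 nm. Compounds up to 77 uM; AC50 from Hill fits.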
With `Clc1ccc(/C=N/Nc2nn[nH]n2)cc1` the Potency was inconclusive: 50.1 µM [inhibitor, single point].
For `COc1ccc(-c2nn(-c3ccccc3)cc2/C=C/C(=O)OCC(=O)Nc2ccc(C#N)cc2)cc1`, the Potency was “inactive”.
`CCOC(=O)c1c(NC(=O)/C(C#N)=C/c2ccccc2)sc2c1CCC2` was tested, and the Potency was “inactive”.
For `O=C(CNC1CCCC1)Nc1ccc(N2CCCCCC2)cc1`, the Potency was inconclusive: 39.8 µM [inhibitor, single point].
For `O=C(NCCCN1CCN(c2ccccc2)CC1)Nc1ccccc1C(F)(F)F`, the Potency was inconclusive: 28 µM [activator, partial curve].
`COc1ccc(C2C3=C(CC(C)(C)CC3=O)Nc3c2c(=O)[nH]c(=O)n3Cc2ccccc2)cc1` (stereo unspecified) was tested, and the Potency was inconclusive: 25.1 µM [inhibitor, partial curve].
In the case of `COc1ccc(N2CCN(C(=O)c3sc4nc5n(c(=O)c4c3C)CCC5)CC2)cc1`, the Potency is reported as “inactive”.
With `Cc1ccnc(NS(=O)(=O)c2ccc(NC(=O)c3ccc(S(=O)(=O)N(C)C)cc3)cc2)n1` the Potency was inconclusive: 50.1 µM [inhibitor, single point].
With `C/C(=N\NS(=O)(=O)c1ccc([N+](=O)[O-])cc1)c1c[nH]c2ccccc12` the Potency was inconclusive: 7.94 µM [inhibitor, single point].
`Cc1cccn2c(NCc3ccc4c(c3)OCO4)c(-c3ccc(O)cc3)nc12` was tested, and the Potency was inconclusive: 17.8 µM [inhibitor, partial curve].
For `CCOc1cc(/C=N/N=C(N)N)ccc1OCc1ccc(Cl)cc1`, the Potency was “inactive”.
For `CCC(C)c1ccc(O)c(NC(=O)c2ncn[nH]2)c1` (stereo unspecified), the Potency was inconclusive: 12.6 µM [inhibitor, partial curve].
`O=C(O)c1ccc(NS(=O)(=O)/C=C/c2ccccc2)cc1O` was tested, and the Potency was inconclusive: 6.31 µM [inhibitor, full curve].
`CN1C(=O)C(CC(=O)Nc2ccc(F)cc2)N(Cc2ccco2)C1=S` (stereo unspecified) was tested, and the Potency was inconclusive: 25.1 µM [activator, partial curve].
With `CCn1c(SC)nc(O)c(C(c2ccc(OC)c(O)c2)c2c(O)nc(SC)n(CC)c2=O)c1=O` the Potency was inconclusive: 35.5 µM [inhibitor, partial curve].
In the case of `NNC(=O)c1sc2nc(N3CCOCC3)c3c(c2c1N)CCCC3`, the Potency is reported as inconclusive: 31.6 µM [inhibitor, partial curve].
In the case of `C=CCOc1ccc(CNc2ccc3[nH]c(=O)[nH]c3c2)cc1OCC`, the Potency is reported as “inactive”.
In the case of `O=C1CC(c2cccc(O)c2)c2cc3c(cc2N1)OCO3` (stereo unspecified), the Potency is reported as “inactive”.
In the case of `Nc1nonc1C(=O)NCCNCc1cccc(Cl)c1Cl`, the Potency is reported as inconclusive: 7.08 µM [inhibitor, partial curve].
With `CC1CCCC2(C1)NC(=S)c1c(sc3c1CCCC3)N2` (stereo unspecified) the Potency was inconclusive: 17.6 µM [inhibitor, partial curve].
`Cc1ccc2c(=O)cc(C(=O)Nc3c(C(=O)Nc4cccc(Cl)c4)oc4ccccc34)oc2c1` was tested, and the Potency was “inactive”.
In the case of `CCOc1cccc(/C=N/NC(=S)NCCN2CCOCC2)c1O`, the Potency is reported as inconclusive: 22.4 µM [inhibitor, single point].
`O=C(CSc1nc2ccccc2n1CCc1ccccc1)c1ccc(O)c(O)c1` was tested, and the Potency was active: 3.98 µM.
With `COc1cc(/C=C2\CCCc3c2nc2ccccc2c3C(=O)O)cc(Cl)c1O` the Potency was inconclusive: 50.1 µM [inhibitor, single point].
With `Cc1nn(Cc2ccccc2)c(C)c1/C=N/NC(=O)c1cccnc1` the Potency was inconclusive: 39.8 µM [inhibitor, single point].
With `S=c1[nH]nc(CSc2nc3ccccc3s2)n1C1CCCCC1` the Potency was inconclusive: 9.92 µM [inhibitor, partial curve].
For `O=C1c2ccccc2NC(c2ccc(Cl)cc2Cl)N1O` (stereo unspecified), the Potency was inconclusive: 35.5 µM [inhibitor, single point].
`O=C1CN(C(=O)c2ccc(S(=O)(=O)N3CCCCC3)cc2)C(c2ccc(F)cc2)c2cc(Br)ccc2N1` (stereo unspecified) was tested, and the Potency was “inactive”.
`N#Cc1c(/N=C/c2cccnc2)sc2c1CCCC2` was tested, and the Potency was inconclusive: 35.5 µM [inhibitor, partial curve].
For `COCCNC(=O)CSc1c2c(nc3ccc(Cl)cc13)CCCC2`, the Potency was inconclusive: 5.62 µM [inhibitor, full curve, poor fit].
In the case of `COc1cccc(NC(=O)Nc2cccc(C(=O)O)c2)c1`, the Potency is reported as “inactive”.
For `Cc1cccc(NC(=O)c2cc(-c3c(C)cc(C)cc3O)n[nH]2)c1`, the Potency was “inactive”.
`CCC12CN3CC(C)(CN(C1)C3c1c[nH]c3ccc(OC)cc13)C2=O` (stereo unspecified) was tested, and the Potency was “inactive”.
For `CCOC(=O)c1ccc(N2C(=O)CC(NNC(=O)c3ccc(Br)s3)C2=O)cc1` (stereo unspecified), the Potency was inconclusive: 10 µM [inhibitor, full curve].
For `COc1ccc(NC(=S)Nc2cccc(C(C)=O)c2)cc1OC`, the Potency was inconclusive: 39.8 µM [inhibitor, single point].
In the case of `O=C(N/N=C1\C/C(=N\NC(=O)c2ccncc2)c2ccccc21)c1ccncc1`, the Potency is reported as inconclusive: 31.6 µM [inhibitor, single point].
In the case of `CCCOc1ccc(NC(=O)CC2C(=O)N(c3ccc(C)cc3)C(=O)N2C2CCCC2)cc1` (stereo unspecified), the Potency is reported as inconclusive: 50.1 µM [inhibitor, single point].
`COc1ccc(N2Nc3n[nH]c(N)c3N2)cc1` was tested, and the Potency was active: 25.1 µM.
With `O=C(NN=C1C2CC3CC(C2)CC1C3)c1ccccc1O` the Potency was inconclusive: 6.31 µM [inhibitor, full curve].
With `CC(=O)Nc1nonc1NC(=O)CSC1=NCCS1` the Potency was inconclusive: 39.5 µM [activator, partial curve, poor fit].
For `CCc1nn(CC(=O)N2CCN(c3ccc(Cl)cc3)CC2)c(=O)c2cc3occc3n12`, the Potency was “inactive”.
In the case of `Cc1cn(C2OC(COC(=O)c3ccccc3)C(OC(=O)c3ccccc3)C2OC(=O)c2ccccc2)c(=O)[nH]c1=O` (stereo unspecified), the Potency is reported as “inactive”.
For `Cc1c(O)ccc(/C=N/Nc2nc(-c3cccnc3)nc3ccccc23)c1O`, the Potency was active: 35.5 µM.
`COc1ccc(CSc2nc(C)cc(=O)[nH]2)cc1Br` was tested, and the Potency was “inactive”.
For `CCOC(=O)COc1ccc(CC)cc1C(=O)c1ccn2nc(-c3ccc(Cl)cc3)cc2n1`, the Potency was “inactive”.
In the case of `CCOc1ccc(C(c2c(C)[nH]n(-c3ccccc3)c2=O)c2c(C)[nH]n(-c3ccccc3)c2=O)cc1OC`, the Potency is reported as inconclusive: 12.6 µM [inhibitor, partial curve].
`COc1ccc(C/C(C)=N/NC(=O)c2ccc(Cl)cc2)cc1` was tested, and the Potency was inconclusive: 31.4 µM [inhibitor, single point].
In the case of `CCOC(=O)c1[nH]c2ccccc2c1NC(=S)Nc1cccc(C)c1C`, the Potency is reported as inconclusive: 8.91 µM [inhibitor, partial curve].
In the case of `Cc1ccccc1N(C(=O)c1ccccn1)C(C(=O)NCc1ccccc1)c1ccncc1` (stereo unspecified), the Potency is reported as “inactive”.
In the case of `COc1ccccc1NC(=S)NNC(=O)c1cc(C)n(C)n1`, the Potency is reported as inconclusive: 10 µM [inhibitor, partial curve].
For `COc1ccc2ccc3c(c2c1)N=C[C@]1(O3)N(C)c2ccccc2C1(C)C`, the Potency was inconclusive: 25.1 µM [activator, single point].
With `COc1ccccc1CNN` the Potency was inconclusive: 31.6 µM [activator, single point].
With `C=CCNC(=O)CC1Nc2c3ccccc3nc(=S)n2C1=O` (stereo unspecified) the Potency was inconclusive: 10 µM [inhibitor, partial curve, poor fit].
`Oc1ccc(/C=N/Nc2ccccc2)cc1` was tested, and the Potency was inconclusive: 14 µM [inhibitor, partial curve].
In the case of `Cc1ccc2[nH]c(C(=O)O)c(NC(=O)CN3CCN(c4cccc(C)c4C)CC3)c2c1`, the Potency is reported as inconclusive: 28 µM [inhibitor, single point].
With `Cc1cc2c(NC(=O)Nc3ccc(F)cc3)cccc2nn1` the Potency was “inactive”.
With `CCN(CC)CC(=O)Nc1cc(N(C)C)nc2ccccc12` the Potency was inconclusive: 35.5 µM [activator, single point].
With `Cc1csc(N/N=C/c2ccc([N+](=O)[O-])cc2)n1` the Potency was inconclusive: 50.1 µM [inhibitor, single point].
For `CC(=O)c1sc(N/N=C/c2cccc(O)c2)nc1C`, the Potency was inconclusive: 28.2 µM [inhibitor, partial curve].
In the case of `Cc1ccc(C)n1Cc1ccc(C(=O)O)cc1`, the Potency is reported as inconclusive: 31.6 µM [activator, single point].
For `Cc1ccc(-c2nc(CS(=O)CC(=O)NCCN3CCOCC3)c(C)o2)cc1` (stereo unspecified), the Potency was inconclusive: 100 µM [inhibitor, partial curve, poor fit].
In the case of `Oc1ccc(/C=N/NC(=S)Nc2cccnc2)c(O)c1`, the Potency is reported as inconclusive: 28.2 µM [inhibitor, single point].
`CCc1cc(-c2n[nH]c(=S)n2-c2cccc(C)c2)cs1` was tested, and the Potency was inconclusive: 19.8 µM [inhibitor, partial curve].
`CC(C)COc1ccc(C(=O)Nc2cccc(-c3nc4ccccc4[nH]3)c2)cc1` was tested, and the Potency was “inactive”.
In the case of `Oc1ccc(-c2cnns2)c(O)c1`, the Potency is reported as inconclusive: 3.95 µM [inhibitor, single point].
In the case of `Cc1cc(N/N=C/c2ccccc2)nc(NCc2ccccc2)n1`, the Potency is reported as “inactive”.
For `COC(CC(=O)NNC(=S)Nc1ccccc1)OC`, the Potency was inconclusive: 22.4 µM [inhibitor, partial curve].
For `O=C(CN1CCN(c2ccc(O)cc2)CC1)Nc1cc([N+](=O)[O-])ccc1Cl`, the Potency was active: 11.2 µM.
For `O=[N+]([O-])c1cc(CN2CCCC2)c2cccnc2c1O`, the Potency was “inactive”.
For `COc1cc(/C=N/NC(=O)c2cc(C34CC5CC(CC(C5)C3)C4)[nH]n2)ccc1O`, the Potency was inconclusive: 28.2 µM [inhibitor, partial curve].
With `CCc1ccccc1N/N=C(/C)c1c(O)cc(C)oc1=O` the Potency was inconclusive: 35.5 µM [inhibitor, single point].
